# This is one part of the list.
# B1: LgFlo1 (Saccharomyces pastorianus), B3IUA8 (protein)
# chain: SGSTQACLPVGSRKNGMNVNFYKYSLQDSTTYSDPQYMAYKYSDTKKLGSVSGQTHLSIYYGPNTAFWNTASWSSDLFGFYTTPTNVTVEMTGYFLPPQTGSYTFKFATVDDSAILSVGGSIAFECCAQEQPPITSTDFTINGIKPWDAATPTDIKGSTYMYAGYYYPIKIVYSNAKALARLPVSVVLPDGTEVNDDFEGYVYSFDDDLSQSNCTIPDPSKHTTS
# Assays:
# Assay in all cases: glycan array binding signal (z-score within array); higher = stronger binding
# Settings in all cases: glycan notation: IUPAC condensed, linker removed
# [1] = molecular target: Gal6S(b1-4)Glc
# In short: (§1)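 The Consortium for Functional Glycomics database supplied 3228 glycan arrays, of which those lacking an available protein sequence were dropped. The binding signal, a within-array Z-score, was averaged across arrays of the same protein sequence and across linkers. Negative scores can be read as non-binding.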
# [2] = molecular target: Gal6S(b1-4)Glc6S
# In short: as §1
# [3] = molecular target: Gal6S(b1-4)GlcNAc
# In short: as §1
# [4] = molecular target: Gal6S(b1-4)GlcNAc6S
# In short: as §1
# [5] = molecular target: GalNAc(a1-3)Gal
# In short: as §1
# [6] = molecular target: GalNAc(a1-3)GalNAc
# In short: as §1
# [7] = molecular target: GalNAc(a1-3)GalNAc(b1-3)Gal(a1-4)Gal(b1-4)Glc
# In short: as §1
# [8] = molecular target: GalNAc(a1-3)GalNAc(b1-3)Gal(a1-4)Gal(b1-4)GlcNAc
# In short: as §1
# [9] = molecular target: GalNAc(b1-3)Gal
# In short: as §1
# [10] = molecular target: GalNAc(b1-3)Gal(a1-4)Gal(b1-4)GlcNAc
# In short: as §1
# [11] = molecular target: GalNAc(b1-3)Gal(a1-4)Gal(b1-4)GlcNAc(b1-3)Gal(b1-4)Glc
# In short: as §1
# [12] = molecular target: GalNAc(b1-3)Gal(a1-6)Gal(b1-4)Glc
# In short: as §1
# [13] = molecular target: GalNAc(b1-3)GalNAc
# In short: as §1
# [14] = molecular target: GalNAc(b1-3)GlcNAc
# In short: as §1
# [15] = molecular target: GalNAc(b1-4)Gal(b1-4)Glc
# In short: as §1
# [16] = molecular target: GalNAc(b1-4)GlcNAc
# In short: as §1
# [17] = molecular target: GalNAc(b1-4)GlcNAc(b1-2)Man
# In short: as §1
# [18] = molecular target: GalNAc(b1-4)GlcNAc(b1-2)Man(a1-3)[GalNAc(b1-4)GlcNAc(b1-2)Man(a1-6)]Man(b1-4)GlcNAc(b1-4)GlcNAc
# In short: as §1
# [19] = molecular target: GalNAc(b1-4)GlcNAc(b1-3)GalNAc(b1-4)GlcNAc
# In short: as §1
# [20] = molecular target: GalNAc(b1-4)GlcNAc6S
# In short: as §1
# [21] = molecular target: GalNAc(b1-6)GalNAc
# In short: as §1
# [22] = molecular target: GalNAc3S(b1-4)GlcNAc
# In short: as §1
# [23] = molecular target: GalNAc3S(b1-4)GlcNAc3S
# In short: as §1
# [24] = molecular target: GalNAc3S(b1-4)[Fuc(a1-3)]GlcNAc
# In short: as §1
# [25] = molecular target: GalNAc4S6S(b1-4)GlcNAc
# In short: as §1
# [26] = molecular target: GalNAc6S(b1-4)GlcNAc
# In short: as §1
# [27] = molecular target: Glc(a1-4)Glc
# In short: as §1
# [28] = molecular target: Glc(a1-4)Glc(a1-4)Glc(a1-4)Glc
# In short: as §1
# [29] = molecular target: Glc(a1-6)Glc(a1-6)Glc
# In short: as §1
# [30] = molecular target: Glc(a1-6)Glc(a1-6)Glc(a1-6)Glc
# In short: as §1
# [31] = molecular target: Glc(b1-4)Glc
# In short: as §1
# [32] = molecular target: Glc(b1-6)Glc
# In short: as §1
# [33] = molecular target: GlcA(b1-3)Gal
# In short: as §1
# [34] = molecular target: GlcA(b1-3)GlcNAc
# In short: as §1
# [35] = molecular target: GlcA(b1-6)Gal
# In short: as §1
# [36] = molecular target: GlcA3S(b1-3)Gal(b1-4)GlcNAc(b1-2)Man
# In short: as §1
# [37] = molecular target: GlcA3S(b1-3)Gal(b1-4)GlcNAc(b1-3)Gal(b1-4)Glc
# In short: as §1
# [38] = molecular target: GlcNAc(a1-3)Gal(b1-4)GlcNAc
# In short: as §1
# [39] = molecular target: GlcNAc(a1-4)Gal(b1-3)GlcNAc
# In short: as §1
# [40] = molecular target: GlcNAc(a1-4)Gal(b1-4)GalNAc
# In short: as §1
# [41] = molecular target: GlcNAc(a1-4)Gal(b1-4)GlcNAc
# In short: as §1
# [42] = molecular target: GlcNAc(a1-4)Gal(b1-4)GlcNAc(b1-3)Gal(b1-4)Glc
# In short: as §1
# [43] = molecular target: GlcNAc(a1-4)Gal(b1-4)GlcNAc(b1-3)Gal(b1-4)GlcNAc
# In short: as §1
# [44] = molecular target: GlcNAc(a1-4)Gal(b1-4)GlcNAc(b1-3)Gal(b1-4)GlcNAc(b1-3)Gal(b1-4)GlcNAc
# In short: as §1
# [45] = molecular target: GlcNAc(a1-4)Gal(b1-4)GlcNAc(b1-3)Gal(b1-4)[Fuc(a1-3)]GlcNAc(b1-3)Gal(b1-4)[Fuc(a1-3)]GlcNAc
# In short: as §1
binder,measurement,setting,value
B1,glycan array binding signal (z-score),[1],0.098
same,glycan array binding signal (z-score),[2],1.01
same,glycan array binding signal (z-score),[3],-0.114
same,glycan array binding signal (z-score),[4],1.76
same,glycan array binding signal (z-score),[5],0.471
same,glycan array binding signal (z-score),[6],0.064
same,glycan array binding signal (z-score),[7],-0.265
same,glycan array binding signal (z-score),[8],-0.141
same,glycan array binding signal (z-score),[9],-0.14
same,glycan array binding signal (z-score),[10],-0.222
same,glycan array binding signal (z-score),[11],-0.173
same,glycan array binding signal (z-score),[12],-0.218
same,glycan array binding signal (z-score),[13],-0.422
same,glycan array binding signal (z-score),[14],-0.426
same,glycan array binding signal (z-score),[15],1.21
same,glycan array binding signal (z-score),[16],-0.347
same,glycan array binding signal (z-score),[17],-0.405
same,glycan array binding signal (z-score),[18],-0.047
same,glycan array binding signal (z-score),[19],-0.273
same,glycan array binding signal (z-score),[20],-0.421
same,glycan array binding signal (z-score),[21],-0.002
same,glycan array binding signal (z-score),[22],-0.342
same,glycan array binding signal (z-score),[23],-0.174
same,glycan array binding signal (z-score),[24],0.374
same,glycan array binding signal (z-score),[25],-0.133
same,glycan array binding signal (z-score),[26],-0.305
same,glycan array binding signal (z-score),[27],-0.454
same,glycan array binding signal (z-score),[28],-0.301
same,glycan array binding signal (z-score),[29],-0.471
same,glycan array binding signal (z-score),[30],-0.225
same,glycan array binding signal (z-score),[31],-0.511
same,glycan array binding signal (z-score),[32],-0.033
same,glycan array binding signal (z-score),[33],-0.201
same,glycan array binding signal (z-score),[34],-0.253
same,glycan array binding signal (z-score),[35],0.596
same,glycan array binding signal (z-score),[36],-0.03
same,glycan array binding signal (z-score),[37],0.171
same,glycan array binding signal (z-score),[38],-0.343
same,glycan array binding signal (z-score),[39],-0.29
same,glycan array binding signal (z-score),[40],-0.277
same,glycan array binding signal (z-score),[41],-0.166
same,glycan array binding signal (z-score),[42],-0.25
same,glycan array binding signal (z-score),[43],-0.288
same,glycan array binding signal (z-score),[44],-0.3
same,glycan array binding signal (z-score),[45],-0.078
